Measured values: paper PMC12136788
The other results are listed elsewhere or left out.

B1: 25664507_25664627_160_5pUTR_ENSG00000183726_ENST00000374358|human|control|control (ssRNA)
RNA: GGGAGUUCUACAGUCCGACGAUCAAGUUGCUCUGUGUGCUGAGCGUUCUAAAGGAAGGCGUCCGUUGGCCUUCGUACCCGUCUUGAGUGAGGUGACGAGUGUUUUCUAGUACUGGGGUCGGCCGCGCAGCCCUCUCAGGGGUGCAACAGAGGAUUGAGCAUCA
B2: chr7:149068622:149068623:-_ENSMUSG00000025139_ENSMUST00000001950|mus_hu|mus_mus_mus_hu_False|1_48 (ssRNA)
RNA: GGGAGUUCUACAGUCCGACGAUCGUGAGGCCUCUGAGUGUGGCUUGUGGUCUGUCCUGGGUUAGAGUUGUUAAUAUCACGGAACAUACCACUUAAGACGUUCCAGUCCCGCCUGACACCUUCAUUCCCAAUGGAGAAUCUGCUCAACAGAGGAUUGAGCAUCA
B3: 70785274_70785394_1580_CDS_ENSG00000145734_ENST00000358731|human|control|control (ssRNA)
RNA: GGGAGUUCUACAGUCCGACGAUCUAGGUCUACUUCUAAUGCAACCUGCUCUGCAUCCUCCCUUGAUAAGGUCAGAGACUCUUCUUCAACUGUCUGAGCAUCCUUCUGAGAUCUUUCCGUGUCUGAAAUUCUAGAACUCAUAGACAACAGAGGAUUGAGCAUCA
B4: chr1:58468927:58468928:-_ENSMUSG00000026034_ENSMUST00000148330|mus_mus|mus_mus_mus_hu_False|18_38 (ssRNA)
RNA: GGGAGUUCUACAGUCCGACGAUCAAUUACUGAAAAAGAUGUUCAUUACCUUAGCUAUGUACUUAAUGAACCAAAUUACCCAAACAAAAUAAACAUGUUUACAAAUUAAUGUUAAGAAAAUAACUUACUGUACAAAAUAACUUACAACAGAGGAUUGAGCAUCA
B5: chr7:135850644:135850645:-_ENSMUSG00000048170_ENSMUST00000057557|mus_mus|motif|central (ssRNA)
RNA: GGGAGUUCUACAGUCCGACGAUCGUAGAGGUGUUCCGUGAAGGUACUGUUCUGCGGGCAACCACUCAGGUUAACUGUAAAUUUUCCGGGAGGAAGUACAUCUCUUCUUGUAUACACUGUAGAGAUGAGAUGCAAUAUAAGAUACAACAGAGGAUUGAGCAUCA
B6: 57415345_57415465_633_3pUTR_ENSG00000087460_ENST00000313949|human|control|control (ssRNA)
RNA: GGGAGUUCUACAGUCCGACGAUCCUAGGCACUCGGGGAGGGACAGCUCAAGGUCUGCCUCCUCGUGCUCGUGGUCAGAUUCCGAUUCGGGGGACUCAGGGAAUACCUGGGCGCCGGAGCGGUGGUGGGCGUUAAGGAAGCUCCCAACAGAGGAUUGAGCAUCA
B7: chr4:120564322:120564323:+_ENSMUSG00000032890_ENSMUST00000071093|mus_hu|FALSE|FALSE (ssRNA)
RNA: GGGAGUUCUACAGUCCGACGAUCUCCACACAACACUCCUUUGGGUUUCUUUUCAACAAGACACAAAGAGACGUGGAGACAUUUCAGCCCAUAUCAUCACCAGGAGUGACUAUACCCAGACAAAUGAACAGAUAGAACGUGGUCCAACAGAGGAUUGAGCAUCA
B8: chr7:65705844:65705845:+_ENSG00000169902_ENST00000304842|hu_mus|hu_hu_hu_mus_False|1_1 (ssRNA)
RNA: GGGAGUUCUACAGUCCGACGAUCAAACGGAUCUUUGUUACAUAAAUAAGGUGCCGGCUCCCCAUGUUUAACAAUGACCUCCAGAAGGAAGGCUUGCAUGGCAGAAUCUAGCACUUCAUCUGUGACACCCGCCUCAUCCAGGCGCAACAGAGGAUUGAGCAUCA
B9: chr14:89305849:89305850:+_ENSG00000165533_ENST00000346301|hu_hu|FALSE|FALSE (ssRNA)
RNA: GGGAGUUCUACAGUCCGACGAUCAGCAUUUUCAUCCAGCAUCAUUUCUGCAAUUCCUUCCUGAUCUACAUCAAUUUCAUCUAUGUAUACCAUUUCUGUUAGCGCUCUUGCUUUUAAGAUCCAAGCUGCCUGGUCAUAAGGGGACAACAGAGGAUUGAGCAUCA
B10: chr10:79795341:79795342:+_ENSG00000138326_ENST00000360830|hu_hu|FALSE|FALSE (ssRNA)
RNA: GGGAGUUCUACAGUCCGACGAUCAUGAGUUCUGAAUCCAAAUACAAAGAUGACAUCCGGUGUGGUCUUGUACAUUUUGGCUAGUUUUUCCCGAAUUUCUGUCUUAGGCACUGUCGCCUUCCCGGGGUGAAGGACAUCAAUGACCAACAGAGGAUUGAGCAUCA
B11: 30352122_30389648_287_CDS_ENSMUSG00000029775_ENSMUST00000068259|mouse|control|control (ssRNA)
RNA: GGGAGUUCUACAGUCCGACGAUCGUGGCCUCUCAAGAACCUGUUAGGGAUCCUUAUGAUGGGACAGGACUGAAUGAAGCGCCUCCUAACUGGGUCCCACCGUAUUUUCUUCUUACCUGGCAGGUGCGGCCGUCCCGAGAGCUGCAACAGAGGAUUGAGCAUCA
B12: 42223328_42223448_1859_3pUTR_ENSMUSG00000037287_ENSMUST00000125995|mouse|control|control (ssRNA)
RNA: GGGAGUUCUACAGUCCGACGAUCUCAGAAUGAAAACCAGACCCAGGACCCCCAAAUGGAAAGGAGGAGGAGGAGGGGCAGGGAAGGAAGAGCCAGAGAAGGCCCUCCCUAGGAGGACCCCCAUCCCUCCCUAGGAGGACCCCACAACAGAGGAUUGAGCAUCA
B13: chr1:168318718:168318719:+_ENSMUSG00000026563_ENSMUST00000027846|mus_mus|motif|central (ssRNA)
RNA: GGGAGUUCUACAGUCCGACGAUCCUGGGGCUCCUUUGCCACGAACUGCUGAGCUCCAGAGAGGGGGUUCUGAGGCUGGAACCGGUGAUCAAAUUUUUGACGAACAGAAGAAAGCUUUUUCUUGCCCUUGGGUUUUCCAGGCUUCAACAGAGGAUUGAGCAUCA
B14: chr10:5827197:5827198:-_ENSG00000057608_ENST00000380191|perfect_dup|motif|central (ssRNA)
RNA: GGGAGUUCUACAGUCCGACGAUCAUAAAGGUAUGGGCUUUUGCCAUAUCUUGCCAAAGAUUCACUGUAAAGUUUAAUUCGGUUAAUGGUUUCAUAACACGGUUGAUCUAAGUAAUCAUCAGUUCUGUAAAGUGCAAGAGCAUGCAACAGAGGAUUGAGCAUCA
B15: chr2:60072280:60072281:+_ENSMUSG00000026977_ENSMUST00000102748|mus_mus|motif|central (ssRNA)
RNA: GGGAGUUCUACAGUCCGACGAUCUCUUCGUGAGAAAAAAGUAGAUGACAUGCUAGAAGCUAUCCGUGACAGCAAUCUCCGGGUUGUACGCCUACCUUCAUUGUCAGAAGAUUCUCGAUAUGGUCUCUGAGAUGAACCCCUUUCCAACAGAGGAUUGAGCAUCA
B16: 38144846_38144966_2325_CDS_ENSMUSG00000063455_ENSMUST00000169256|mouse|control|control (ssRNA)
RNA: GGGAGUUCUACAGUCCGACGAUCAGGUGUCAGAGUCGAGAAUGGAGAUGACUCGGUUAAAAUGGGUGUCAAAUGGAAAACAGUUGUUGGCAGUGAUGUGAGGUGAGUCCCAGCUGCGUAGAUGCCAAGAGAGGGCUCAGAGCUCAACAGAGGAUUGAGCAUCA
B17: chr6:112015657:112015658:-_ENSG00000010810_ENST00000368667|hu_mus|FALSE|FALSE (ssRNA)
RNA: GGGAGUUCUACAGUCCGACGAUCAGCAAUCUUGCAAAUUAGUCCAUUCCCCACUAGAAUGUUUGCUGAUCGCAGAUCUCUGUGGAUAUAAUUCAUGCGCUCGAUGUAAGCCAUUCCUGCAGCAACCUGUGCCGCCAUGUCCACCAACAGAGGAUUGAGCAUCA
B18: chr13:104551264:104551265:-_ENSMUSG00000032621_ENSMUST00000074616|mus_mus|motif|central (ssRNA)
RNA: GGGAGUUCUACAGUCCGACGAUCUCCAAGUGUUGUAAUAUUUGGGUCCAGCGCUGCUGCUGGGAUAGCUCCCAAACUGCGGAGUGAAACACCAAGACUACUCACUGCCGUCAGAGGACUGGAGGUUGGGAUGGGAAGCAACCCCAACAGAGGAUUGAGCAUCA
B19: chr4:148551591:148551592:-_ENSMUSG00000063077_ENSMUST00000060537|mus_hu|mus_mus_mus_hu_False|58_108 (ssRNA)
RNA: GGGAGUUCUACAGUCCGACGAUCACCUUACAAAAUUAAAUAUCCCUGUAAAUUAGACAAUAAGCAGCAGGCAACAAAGUCUAUGCUUUGGAAUAUGUGCCAGGAAAAGUCAUCUUGUUUUUAGAUCUCAAGAGACAGUUCACACAACAGAGGAUUGAGCAUCA
B20: chr7:141445308:141445309:+_ENSG00000106028_ENST00000265304|hu_hu|hu_hu_hu_mus_False|8_18 (ssRNA)
RNA: GGGAGUUCUACAGUCCGACGAUCUAUGAUUGUUGUUGCUUGCCGCCUCACAUUGUUUUUAUCCAUGUACUCGCCAUAGUCCACUUUCCCUUCCACAAAUAUACGAGCCCCCUUUUUCACAUAUUGAUAUGCCACGUCUCUGAGCAACAGAGGAUUGAGCAUCA
B21: chr14:78183846:78183847:+_ENSG00000119705_ENST00000557342|hu_hu|hu_hu_hu_mus_False|8_8 (ssRNA)
RNA: GGGAGUUCUACAGUCCGACGAUCUCUCAGAAAUCUUUCUUCAUCAGAUGUUUGAGCUCCGUGCAAAGCCUUUGCUCUUUGAGCUUGAACGUGGAUCUAUGGGAGGGAAAGCACUGUCAGAAAAGGUUGUAGUGCAUUUAAAGACAACAGAGGAUUGAGCAUCA
B22: chr13:97419678:97419679:-_ENSMUSG00000021670_ENSMUST00000022176|mus_mus|FALSE|FALSE (ssRNA)
RNA: GGGAGUUCUACAGUCCGACGAUCAGACACUUAAUUACAACAUAUACAGAUUGAUAGUUUACCAAAAAAUCUAGAGUUCAGCUAAAUAAGUUAAAAUGUCUCUAAAAGAAACUUGGCUUAGAGAAAUGGUCGUUUGUUUUUUGUCAACAGAGGAUUGAGCAUCA

These binders were tested against T1, UNK ZnF1-3 (human, UniProt Q9C0B0 31-174) (assay: nsRBNS (natural sequence RNA bind-n-seq); RBNS binding buffer (assumed for nsRBNS): 25 mM Tris pH 7.5, 150 mM KCl, 3 mM MgCl2, 0.01% Triton X-100, 500 ug/ml BSA, 20 U/ml SUPERase-In, 4 C; UNK is unkempt and MSI1 is Musashi-1; names of the RNAs are library labels; protein concentration not given here; high values mean tight binding).
T1 sequence: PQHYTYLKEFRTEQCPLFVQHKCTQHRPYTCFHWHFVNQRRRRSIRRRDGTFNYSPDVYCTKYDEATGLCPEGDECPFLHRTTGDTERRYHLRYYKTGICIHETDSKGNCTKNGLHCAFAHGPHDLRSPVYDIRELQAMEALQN
For B1, the binding signal was 0.892 enrichment R.
For B2, the binding signal was 0.707 enrichment R.
Binder B3 has a binding signal of 0.941 enrichment R.
For B4, the binding signal was 2.31 enrichment R.
Work on B5 yielded a binding signal of 1.46 enrichment R.
B6 showed a binding signal of 0.766 enrichment R.
B7 gave a binding signal of 1.15 enrichment R.
In the case of B8, the binding signal is reported as 0.379 enrichment R.
Work on B9 yielded a binding signal of 1.02 enrichment R.
B10 was tested, and the binding signal was 0.989 enrichment R.
Work on B11 yielded a binding signal of 0.965 enrichment R.
Binder B12 has a binding signal of 1.4 enrichment R.
In the case of B13, the binding signal is reported as 1.15 enrichment R.
With B14 the binding signal was 0.588 enrichment R.
Work on B15 yielded a binding signal of 0.733 enrichment R.
B16 showed a binding signal of 1.48 enrichment R.
For B17, the binding signal was 1.07 enrichment R.
B18 showed a binding signal of 1.31 enrichment R.
B19 was tested, and the binding signal was 1.2 enrichment R.
B20 showed a binding signal of 0.65 enrichment R.
With B21 the binding signal was 1.3 enrichment R.
For B22, the binding signal was 1.38 enrichment R.
